Data as given in paper PMC4336329 (PLoS ONE, 2015).
About 14,000 (4.5%) of roughly 310,000 compounds showed an effect of 50% or more. Effects have a minus sign here. This is one part of the list.

Each molecule was assayed against human ether-à-go-go-related gene (hERG) potassium channel (human, UniProt Q12809) (assay: primary screen, population patch clamp on CHO cells stably expressing hERG).
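Further: peak tail current of the secondary pulse compared with the same well before compound.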

human ether-à-go-go-related gene (hERG) potassium channel, sequence (Q12809 whole entry, looked up): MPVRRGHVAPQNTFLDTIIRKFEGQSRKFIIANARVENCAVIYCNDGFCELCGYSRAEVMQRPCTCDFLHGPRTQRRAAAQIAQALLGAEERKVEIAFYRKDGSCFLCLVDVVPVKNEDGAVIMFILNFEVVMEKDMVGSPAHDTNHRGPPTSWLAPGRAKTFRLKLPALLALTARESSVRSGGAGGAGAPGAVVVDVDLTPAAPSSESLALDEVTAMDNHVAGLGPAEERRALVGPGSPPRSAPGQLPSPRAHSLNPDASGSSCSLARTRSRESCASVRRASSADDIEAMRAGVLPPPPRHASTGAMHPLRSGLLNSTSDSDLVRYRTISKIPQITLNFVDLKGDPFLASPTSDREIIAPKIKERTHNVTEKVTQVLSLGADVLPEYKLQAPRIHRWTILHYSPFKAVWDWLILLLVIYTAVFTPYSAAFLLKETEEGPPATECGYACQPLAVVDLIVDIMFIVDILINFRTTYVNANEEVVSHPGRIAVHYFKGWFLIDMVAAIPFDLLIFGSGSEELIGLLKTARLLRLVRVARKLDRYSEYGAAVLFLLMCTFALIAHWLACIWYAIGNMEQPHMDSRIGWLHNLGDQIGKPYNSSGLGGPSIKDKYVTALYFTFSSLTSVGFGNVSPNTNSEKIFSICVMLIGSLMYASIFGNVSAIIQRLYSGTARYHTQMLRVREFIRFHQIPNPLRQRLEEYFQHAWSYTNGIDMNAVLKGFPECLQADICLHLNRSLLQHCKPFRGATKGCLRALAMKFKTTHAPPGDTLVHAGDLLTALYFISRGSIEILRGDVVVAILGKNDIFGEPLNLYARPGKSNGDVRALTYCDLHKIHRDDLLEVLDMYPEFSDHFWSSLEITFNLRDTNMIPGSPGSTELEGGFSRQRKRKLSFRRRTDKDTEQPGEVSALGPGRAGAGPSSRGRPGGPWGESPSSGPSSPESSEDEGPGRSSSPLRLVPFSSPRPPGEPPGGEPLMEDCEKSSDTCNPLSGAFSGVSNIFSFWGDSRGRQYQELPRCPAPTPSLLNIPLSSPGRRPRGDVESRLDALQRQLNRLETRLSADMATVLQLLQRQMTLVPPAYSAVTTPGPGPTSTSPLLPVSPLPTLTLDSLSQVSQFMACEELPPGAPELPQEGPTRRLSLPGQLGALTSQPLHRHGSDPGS

Row | SMILES | hERG current change (%, negative = inhibition) at 10uM
1 | Cc1ccc(C(=O)CNc2ccc(C)cc2C)cc1 | 12%
2 | Cc1ccc(Cl)cc1N(CC(=O)NC(C)c1ccccc1)S(C)(=O)=O (centres unmarked) | 13.5%
3 | CN(CCN1CCc2ccccc2C1)Cc1nc(-c2ccc3c(c2)OCO3)no1 | -46.1%
4 | CC1CC(C)CN(CCCNC(=O)c2cc3c(=O)[nH]c4ccccc4c3n2C)C1 (centres unmarked) | 10.7%
5 | Cc1ccc(/C=N/NC(=O)Cc2c[nH]c3ccccc23)c(C)c1 | 13.9%
6 | CCn1c(-c2cccs2)nc2ccccc21 | -11.4%
7 | O=C(c1cccc([N+](=O)[O-])c1)c1ccc2c(c1)OCCOCCOCCO2 | -52.8%
8 | COc1ccccc1CN=C1NC(=O)C(CC(=O)Nc2ccc(OC)c(OC)c2)S1 (centres unmarked) | -1.85%
9 | CCC(C)(C)NC(=O)C(c1ccccc1)N(Cc1cccs1)C(=O)Cn1nnc2ccccc21 (centres unmarked) | 7.58%
10 | Cc1cccc(NC(=O)CN2C(=O)c3ccccc3S2(=O)=O)n1 | 6.7%
11 | O=C(c1coc(=O)c(Br)c1)N1CCC(C(O)(c2ccccc2)c2ccccc2)CC1 | -14.8%
12 | O=C(Cc1csc(Nc2nc(=S)[nH]c3ccccc23)n1)NCCCN1CCN(c2ccccc2F)CC1 | -3.52%
13 | COC(=O)CSc1nc(N)c(NC(=O)c2ccc(OC)c(OC)c2)c(=O)[nH]1 | 21.5%
14 | COc1ccccc1Nc1nc(-c2ccccc2O)nc2ccccc12 | 13.8%
15 | COc1cc(C(=O)N2CCC(NC(=O)C(Cc3ccccc3C)NC(C)=O)CC2)cc(OC)c1OC (centres unmarked) | 1.4%
16 | Cc1cc2nc(/C(C#N)=C\c3ccc(-c4ccccc4C(=O)O)o3)[nH]c2cc1C | 17.4%
17 | COc1ccc2c(c1)nc(SCC(=O)c1cccs1)n2C | -6.58%
18 | CCC1C(=O)NCCN1C(=O)c1ccc(OC)c(OC2CCN(C(C)=O)CC2)c1 (centres unmarked) | 19.2%
19 | CC(C)Oc1ccc(C(CC(=O)O)c2ccc(F)cc2)cc1 (centres unmarked) | 6.58%
20 | Cc1ccc([N+](=O)[O-])cc1N(CC(=O)NC1CCCC1)S(C)(=O)=O | 23.9%
21 | CC1CN(C(=S)c2cccc([N+](=O)[O-])c2)CC(C)O1 (centres unmarked) | 8.78%
22 | COCCNC(=O)CCc1nnc(C2(c3ccc(Cl)cc3)CCC2)o1 | 11.8%
23 | Cc1cc(C(N)=O)c2cc(Br)ccc2n1 | 1.34%

Row | SMILES | hERG current change (%, negative = inhibition) at 10uM
24 | Cc1onc(-c2ccccc2Cl)c1C(=O)NC1CCS(=O)(=O)C1 (centres unmarked) | -7.29%
25 | O=C(CSc1nc2c(c(=O)[nH]1)CCC2)Nc1ccccc1Cl | -6%
26 | Cc1ccc(C(=O)OCC(=O)NC2CCCC2)cc1 | 7.18%
27 | O=C(c1ccc(CNS(=O)(=O)c2ccc(Br)cc2)cc1)N1CCCCC1 | 18.7%
28 | CCCCc1cc(=O)oc2c3c(cc(OCC(=O)NCCCO)c12)OC(C)(C)CC3 | -18.1%
29 | O=C(NCCc1ccc(F)cc1)c1ccncc1 | -1.35%
30 | Cc1ccccc1OCC(=O)NNC(=O)CCN1C(=O)c2ccccc2C1=O | 3.48%
31 | c1cnc2cc(-c3ccsc3)ncc2c1 | -2.17%
32 | NS(=O)(=O)c1cccc(NC(=O)CN2CCc3ccccc32)c1 | 4.39%
33 | Cc1cc(OCc2cc(C(=O)NCc3csc(C(C)C)n3)no2)cc(C)c1Cl | 6.73%
34 | CC1(C)CC(=O)C=C(NCc2ccco2)C1 | -3.7%
35 | CC(C)(C)c1ccc(COn2c(=O)c(-c3ccco3)[n+]([O-])c3ccccc32)cc1 | 20.7%
36 | COc1ccccc1CCNC(=O)C(=O)NCC1OCCN1S(=O)(=O)c1ccccc1 (centres unmarked) | 0.0964%
37 | CC(C)c1ccc(NC(=O)CSc2nnc(OC(=O)N(C)C)n2C2CC2)cc1 | -6.86%
38 | COc1cccc(OC)c1OCCCOc1ccc(C)cc1Br | 5.66%
39 | Cc1cccc(N(C(=O)c2ccc(CN3CCOCC3)o2)C(C(=O)NC(C)(C)C)c2ccc(F)cc2)c1 (centres unmarked) | 6.16%
40 | CCOc1ccc(CCNC(=O)COC(=O)Cn2cnc3ccccc3c2=O)cc1OCC | 5.55%
41 | CC(=O)Nc1cccc(/C(C)=N/NC(=O)c2cccs2)c1 | -6.19%
42 | C/C(=N\Nc1nc2ccccc2[nH]1)c1ccc2c(c1)OCO2 | -35.6%
43 | Cn1c(NCc2cccnc2)nc2c1c(=O)n(Cc1ccccc1F)c(=O)n2C | -13.6%
44 | CC(=O)N1CCN(Cc2nc3cc(NC(=O)COc4ccccc4)ccc3n2C)CC1.Cl | 0.239%
45 | CCC(Sc1nc2c(cnn2-c2ccccc2)c(=O)[nH]1)C(=O)OC (centres unmarked) | -7.46%
46 | O=C(COC(=O)c1n[nH]c(=O)c2ccccc12)c1ccccc1 | 16.3%

Row | SMILES | hERG current change (%, negative = inhibition) at 10uM
47 | O=C(CN1C(=O)C2C3C=CC(C3)C2C1=O)Nc1nc(SCc2ccc(Cl)cc2)n[nH]1 (centres unmarked) | -19.8%
48 | Nc1nc(NCC(=O)O)nc(NCc2ccccc2)c1[N+](=O)[O-] | 14.3%
49 | N#Cc1nccnc1S(=O)(=O)c1cccs1 | -2.55%
50 | Cc1cc(NC(=O)CCC(=O)N(Cc2ccco2)C(C(=O)NC2CCCCC2)c2ccccc2)no1 (centres unmarked) | 3.41%
51 | O=C(COC(=O)/C=C/c1ccco1)NCc1ccco1 | 7.92%
52 | NC(=O)[C@@H]1CCCN1Cc1nc(Cc2ccccc2F)no1 | 7.29%
53 | Cc1ccc(C)c(NC(=O)CN(C)C(=O)c2cccc(-n3cccc3)c2)c1 | -22.2%
54 | Cc1ccc(N)c(N)c1 | 6.61%
55 | C=CCNC(=S)N1CCC(C(=O)c2ccc(OC)cc2)CC1 | -33.1%
56 | COC(=O)C1=CN(Cc2ccc(F)cc2)C=C(C(=O)OC)C1c1ccc(O)c(OC)c1 | -11.6%
57 | Cc1ccc(NC(=S)N2CCC(NC(=O)c3cccc(F)c3)CC2)cc1 | -24.9%
58 | OCCC1CN(Cc2cccc(-c3ccco3)c2)CCN1Cc1ccsc1 (centres unmarked) | -71.6%
59 | COc1cc2c(cc1OC)[C@H](C)N(C(=O)CSc1nc(O)c(C(C)C)c(=O)[nH]1)CC2 | -2.51%
60 | CCC[N+](CC#Cc1ccccc1)(CCC)CC(=O)c1ccc(Cl)cc1 | -67.4%
61 | Cc1ccc(N2CC(C(=O)NNC(=O)c3ccc(F)cc3)CC2=O)cc1 (centres unmarked) | -14.6%
62 | COc1cc(C)c(C(N)=O)c(OC)n1 | 11%
63 | N#CC1=C2N=C(N)c3c(sc4c3CCCCC4)N2C2=C(C(=O)CCC2)C1c1ccccc1 (centres unmarked) | -4.76%
64 | CNC(=S)N(CCc1c(C)[nH]c2ccc(Cl)cc12)Cc1cc(OC)c(OC)c(OC)c1 | -2.11%
65 | CN1CCCN(C(=O)COc2ccc(F)cc2F)CC1 | -3.55%
66 | CCCCc1ccc(NC(=O)c2cnccn2)cc1 | -11.1%
67 | CC(CCc1ccccc1)NC(=O)c1ccc(-n2cncn2)c([N+](=O)[O-])c1 (centres unmarked) | -70.9%
68 | CSc1nnc([C@H](Cc2c[nH]c3ccccc23)NC(=O)OC(C)(C)C)o1 | 7.65%
69 | COc1cccc(NC(=S)N(C)C2CCN(C)CC2)c1 | 11%

Row | SMILES | hERG current change (%, negative = inhibition) at 10uM
70 | CCCCNC(=O)CNC(=S)N(Cc1ccccc1)Cc1cccs1 | -42.9%
71 | CCc1ccc(C(=O)Cn2ncc(Cl)c(Cl)c2=O)cc1 | 10.7%
72 | Clc1ncc2[nH]cnc2n1 | 13.8%
73 | COC(=O)[C@H](Cc1c[nH]c2ccccc12)NC(=O)Cc1c[nH]c2ccccc12 | 7.82%
74 | Cn1c(CN2CCCC(C(=O)c3ccc4c(c3)OCO4)C2)nc2ccccc21 (centres unmarked) | -70.5%
75 | FC(F)(F)c1cccc(N2CCN(c3nnnn3-c3ccccc3)CC2)c1 | -25.3%
76 | CCP(=S)(CC)c1ccc(N(C)C)cc1 | 14.8%
77 | C/C(=N\NC(=O)C1CC1)c1cccnc1 | 1.73%
78 | C=C(C)[C@@H]1CCC2(C(=O)O)CC[C@]3(C)[C@H](CC[C@@H]4[C@@]5(C)CCC(=O)C(C)(C)[C@@H]5CC[C@]43C)[C@@H]12 (some centres unmarked) | 14.4%
79 | O=C(Cc1ccccc1F)Nc1nc(-c2cccs2)cs1 | -19.7%
80 | OCC1(CCOc2ccccc2)CCN(Cc2cc(Cl)ccc2O)CC1 | -24.7%
81 | COC(=O)c1ccccc1NC(=O)c1cnn2c(C(F)F)cc(C3CC3)nc12 | 15.5%
82 | NS(=O)(=O)c1ccc(Sc2ccc3c(c2)CCC3)nc1 | 16.5%
83 | O=C(C1CCCN(c2ncnc3c2nc2n3CCCCC2)C1)N1CCN(c2ccccc2)CC1 (centres unmarked) | -74%
84 | Cc1nc(NC(=O)c2ccccc2)sc1-c1csc(Nc2cccc(F)c2)n1 | 10.6%
85 | CC1C=CC(C)C(C(=O)O)C1C(=O)O (centres unmarked) | 21.2%
86 | COc1cccc(NC=C2C(=O)OC(C)(C)OC2=O)c1 | -16.3%
87 | O=C(c1ccco1)N1CCN(Cc2c(F)cccc2Cl)CC1 | -9.87%
88 | O=C(c1ccccc1)N(Cc1ccccc1)Cc1ccccc1 | -19.7%
89 | COc1cc(NS(=O)(=O)c2ccc(N/C=C\C(=O)c3ccc(OC)c(OC)c3)cc2)nc(OC)n1 | 3.72%
